{
  "source": "PubChem BioAssay AID1345082",
  "about": "(National Center for Advancing Translational Sciences (NCATS), 2018)",
  "note": "Where “and” joins values, the source holds several entries; their conditions need not be identical. Identical values can stand only once. Hit rate of the full screen: of about 94,000 compounds, about 4,000 (4.3%) were called active. This list was built around the results that the source calls inconclusive (neither active nor inactive); the mix of calls is not that of the screen. The call rests on the fitted dose curve; in most records, active means well fitted inhibition curve with a large enough effect; inconclusive means small, poorly fitted or top-dose-only effect; inactive means no such curve, though single readings can be large or run the other way. Where the call is inconclusive, the potency comes from a doubtful curve fit. Potency means the concentration at half of the fitted maximal effect; tags describe the fitted curve by direction and shape.",
  "data": [
    {"test": "Cytotoxic Profiling in NIH 3T3 Cell Line of Diverse Libraries Using Quantitative High-Throughput Screening; further: nearly all actives have a fitted effect of over 55% in size", "conditions": "NIH 3T3 viability, CellTiter-Glo ATP luminescence, 48-72 h; series mostly up to 96.7 µM", "method_in_brief": "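First NIH 3T3 cells are plated at 400 cells/well; next compound is pinned in; then plates incubate 48 or 72 hr at 37 °C; finally CellTiter-Glo is added and luminescence read after 10 min.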", "values": [
      {"smiles": "O=C(CCn1ccn2nc3c(c2c1=O)CCCC3)NCc1ccc(F)cc1Cl", "Potency": "inactive"},
      {"smiles": "Cc1ccc(CNC(=O)C2CCN(c3cnc4nccnc4c3)CC2)o1", "Potency": "inactive"},
      {"smiles": "COc1cccc(NC(=O)Cn2c(-c3cccc(Cl)c3)nc(C)c(CCO)c2=O)c1", "Potency": "inconclusive: 44.7 µM [inhibitor, partial curve, poor fit]"},
      {"smiles": "CCOc1cccc(-c2nc(C(=O)Nc3ccc(OC)cc3)cs2)c1", "Potency": "inconclusive: 70.8 µM [inhibitor, single point]"},
      {"smiles": "O=C(NC1CCCc2c1[nH]c1ccccc21)c1ccc(Br)o1", "note": "(stereo not drawn)", "Potency": "inconclusive: 44.7 µM [inhibitor, partial curve, poor fit]"},
      {"smiles": "CC1Oc2ccc(NC(=O)c3ccccc3F)cc2CN(CCOc2ccccc2)C1=O", "note": "(stereo not drawn)", "Potency": "inconclusive: 35.5 µM [inhibitor, partial curve, poor fit]"},
      {"smiles": "O=C(Nc1cccc(F)c1)N1Cc2[nH]cnc2C[C@H]1c1nc(-c2ccc(C(F)(F)F)cc2)no1", "Potency": "inconclusive: 63.1 µM [inhibitor, partial curve, poor fit]"},
      {"smiles": "Cn1nc(C(=O)NC2CCCN(c3cc(-c4ccc(F)cc4)[nH]n3)C2)c2ccccc21", "note": "(stereo not drawn)", "Potency": "inconclusive: 39.8 µM [inhibitor, partial curve, poor fit]"},
      {"smiles": "COc1ccc(CNc2ncnc3c2CN(C2CCNC2)C(=O)CN3C)cc1OC", "note": "(stereo not drawn)", "Potency": "inactive"},
      {"smiles": "COc1ccc(F)cc1CN1CCC(O)(CN2CCCCC2)C1", "note": "(stereo not drawn)", "Potency": "inactive"},
      {"smiles": "Cc1cc(=O)n(CC(=O)Nc2cc(Cl)ccc2C)c(N2CCC(C)CC2)n1", "Potency": "active: 35.5 µM"},
      {"smiles": "COc1ccc(-c2cn(C)c(=O)n3cc(CN4CC[S+](=O)([O-])CC4)nc23)cc1OC", "Potency": "inconclusive: 112 µM [inhibitor, single point]"},
      {"smiles": "O=C(NCc1ccc(F)cc1)c1ccc2nc(-c3ccccn3)oc2c1", "Potency": "inconclusive: 89.1 µM [inhibitor, partial curve, poor fit]"},
      {"smiles": "CC(C)c1nc2nccc(-c3ccccc3)n2n1", "Potency": "inactive"},
      {"smiles": "NC(=O)c1cccnc1N1CCC(n2cc(-c3ccccc3Cl)nn2)CC1", "Potency": "inactive"},
      {"smiles": "Cc1cccc(CNC(=O)c2ccc(-c3nnc4ccc(NC(=O)C5CCC5)cn34)cc2)c1", "Potency": "inconclusive: 70.8 µM [inhibitor, single point]"},
      {"smiles": "CNC(=O)c1cc(C2CC2)nc2c1c(C1CCCN(C(=O)c3ccccc3F)C1)nn2C", "note": "(stereo not drawn)", "Potency": "inactive"},
      {"smiles": "O=C(NCc1ccc(F)cc1)C1CN(c2cccc(Cl)c2)C(=O)N1", "note": "(stereo not drawn)", "Potency": "inconclusive: 31.6 µM [inhibitor, full curve, poor fit] and inconclusive: 100 µM [inhibitor, partial curve, poor fit]"}
    ]}
  ]
}
